Here are results for six molecules from article PMC3245249.

The chains behind the UniProt entries cited, without tags or fusion partners.
UniProt P39081: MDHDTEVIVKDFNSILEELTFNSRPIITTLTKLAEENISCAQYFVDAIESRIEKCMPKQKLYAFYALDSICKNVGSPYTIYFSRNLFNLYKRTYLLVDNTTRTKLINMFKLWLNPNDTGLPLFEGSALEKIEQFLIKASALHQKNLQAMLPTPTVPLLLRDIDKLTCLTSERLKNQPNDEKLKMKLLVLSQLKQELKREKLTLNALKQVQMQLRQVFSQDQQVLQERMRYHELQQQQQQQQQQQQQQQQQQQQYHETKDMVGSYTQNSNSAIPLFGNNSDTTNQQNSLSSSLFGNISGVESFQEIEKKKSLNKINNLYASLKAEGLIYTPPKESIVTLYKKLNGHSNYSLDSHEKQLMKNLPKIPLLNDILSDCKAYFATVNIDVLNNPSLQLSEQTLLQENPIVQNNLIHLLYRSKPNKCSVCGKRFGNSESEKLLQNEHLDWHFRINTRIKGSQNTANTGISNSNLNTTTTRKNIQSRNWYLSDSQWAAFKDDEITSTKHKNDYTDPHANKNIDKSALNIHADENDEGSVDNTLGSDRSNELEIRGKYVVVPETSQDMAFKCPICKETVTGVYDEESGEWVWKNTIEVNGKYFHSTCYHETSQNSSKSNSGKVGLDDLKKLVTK

The labels stand for the following.
T1: GST-Ysh1 (yeast) (UniProt Q06224)
T1 sequence: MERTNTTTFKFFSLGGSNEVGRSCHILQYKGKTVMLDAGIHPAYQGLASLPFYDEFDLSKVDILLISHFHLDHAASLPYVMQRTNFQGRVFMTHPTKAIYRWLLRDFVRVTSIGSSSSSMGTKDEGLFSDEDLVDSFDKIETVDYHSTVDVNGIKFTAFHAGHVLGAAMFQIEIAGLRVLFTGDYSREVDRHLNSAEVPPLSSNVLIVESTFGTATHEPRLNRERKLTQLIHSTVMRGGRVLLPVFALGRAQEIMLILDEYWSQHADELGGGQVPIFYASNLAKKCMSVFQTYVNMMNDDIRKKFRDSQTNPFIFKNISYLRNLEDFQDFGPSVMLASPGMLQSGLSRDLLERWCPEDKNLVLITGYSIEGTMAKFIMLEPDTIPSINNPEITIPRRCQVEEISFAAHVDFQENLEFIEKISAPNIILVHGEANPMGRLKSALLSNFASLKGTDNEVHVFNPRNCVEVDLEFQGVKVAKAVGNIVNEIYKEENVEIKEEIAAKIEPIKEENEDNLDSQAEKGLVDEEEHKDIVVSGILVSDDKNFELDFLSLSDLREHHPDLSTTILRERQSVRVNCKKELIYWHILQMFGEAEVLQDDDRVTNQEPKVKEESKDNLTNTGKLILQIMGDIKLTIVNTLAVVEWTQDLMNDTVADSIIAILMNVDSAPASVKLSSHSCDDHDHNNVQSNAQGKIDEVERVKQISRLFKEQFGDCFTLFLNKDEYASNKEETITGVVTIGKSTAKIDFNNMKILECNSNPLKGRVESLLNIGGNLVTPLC

T2: GST-Rna14 (yeast) (UniProt P25298)
T2 sequence: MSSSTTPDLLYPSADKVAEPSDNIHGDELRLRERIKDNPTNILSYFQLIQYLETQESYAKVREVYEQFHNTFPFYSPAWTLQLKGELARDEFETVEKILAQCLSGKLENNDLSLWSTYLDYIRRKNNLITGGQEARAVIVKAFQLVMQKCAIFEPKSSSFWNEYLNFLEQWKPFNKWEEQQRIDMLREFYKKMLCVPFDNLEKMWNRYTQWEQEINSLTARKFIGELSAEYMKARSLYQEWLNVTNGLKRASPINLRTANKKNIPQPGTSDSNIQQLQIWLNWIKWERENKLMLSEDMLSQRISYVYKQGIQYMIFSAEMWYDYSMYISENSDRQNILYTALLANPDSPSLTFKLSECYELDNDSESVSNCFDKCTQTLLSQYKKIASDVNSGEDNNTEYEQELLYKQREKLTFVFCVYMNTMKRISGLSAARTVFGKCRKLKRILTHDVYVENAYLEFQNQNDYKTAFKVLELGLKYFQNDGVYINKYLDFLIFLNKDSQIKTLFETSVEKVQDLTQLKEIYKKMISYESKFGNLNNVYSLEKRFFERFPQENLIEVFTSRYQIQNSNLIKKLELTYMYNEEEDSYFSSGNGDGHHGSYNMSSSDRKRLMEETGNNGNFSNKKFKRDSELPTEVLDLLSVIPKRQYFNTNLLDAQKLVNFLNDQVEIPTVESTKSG

T3: GST-Rna15 (yeast) (UniProt P25299)
T3 sequence: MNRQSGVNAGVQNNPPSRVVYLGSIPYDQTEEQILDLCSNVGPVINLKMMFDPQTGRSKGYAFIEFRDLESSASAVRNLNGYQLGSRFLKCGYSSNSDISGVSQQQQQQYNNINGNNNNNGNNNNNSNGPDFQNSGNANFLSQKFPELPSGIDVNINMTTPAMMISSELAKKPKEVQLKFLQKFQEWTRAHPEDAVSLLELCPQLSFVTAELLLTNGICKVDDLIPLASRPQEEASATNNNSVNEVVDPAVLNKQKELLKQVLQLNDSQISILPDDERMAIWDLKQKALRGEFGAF

B1: Pta1, in vitro translated (protein, UniProt Q01329 1-785)
chain: MSSAEMEQLLQAKTLAMHNNPTEMLPKVLETTASMYHNGNLSKLKLPLAKFFTQLVLDVVSMDSPIANTERPFIAAQYLPLLLAMAQSTADVLVYKNIVLIMCASYPLVLDLVAKTSNQEMFDQLCMLKKFVLSHWRTAYPLRATVDDETDVEQWLAQIDQNIGVKLATIKFISEVVLSQTKSPSGNEINSSTIPDNHPVLNKPALESEAKRLLDMLLNYLIEEQYMVSSVFIGIINSLSFVIKRRPQTTIRILSGLLRFNVDAKFPLEGKSDLNYKLSKRFVERAYKNFVQFGLKNQIITKSLSSGSGSSIYSKLTKISQTLHVIGEETKSKGILNFDPSKGNSKKTLSRQDKLKYISLWKRQLSALLSTLGVSTKTPTPVSAPATGSSTENMLDQLKILQKYTLNKASHQGNTFFNNSPKPISNTYSSVYSLMNSSNSNQDVTQLPNDILIKLSTEAILQMDSTKLITGLSIVASRYTDLMNTYINSVPSSSSSKRKSDDDDDGNDNEEVGNDGPTANSKKIKMETEPLAEEPEEPEDDDRMQKMLQEEESAQEISGDANKSTSAIKEIAPPFEPDSLTQDEKLKYLSKLTKKLFELSGRQDTTRAKSSSSSSILLDDDDSSSWLHVLIRLVTRGIEAQEASDLIREELLGFFIQDFEQRVSLIIEWLNEEWFFQTSLHQDPSNYKKWSLRVLESLGPFLENKHRRFFIRLMSELPSLQSDHLEALKPICLDPARSSLGFQTLKFLIMFRPPVQDTVRDLLHQLKQEDEGLHKQCDSLLDRLK
modifications: [35S]-methionine-labelled
B2: CD-CTD-Clp1 (amino acids 101-446), in vitro translated (domain or fragment, UniProt Q08685 101-445)
chain: HTMKYIYNLHFMLEKIRMSNFEGPRVVIVGGSQTGKTSLSRTLCSYALKFNAYQPLYINLDPQQPIFTVPGCISATPISDILDAQLPTWGQSLTSGATLLHNKQPMVKNFGLERINENKDLYLECISQLGQVVGQRLHLDPQVRRSGCIVDTPSISQLDENLAELHHIIEKLNVNIMLVLCSETDPLWEKVKKTFGPELGNNNIFFIPKLDGVSAVDDVYKRSLQRTSIREYFYGSLDTALSPYAIGVDYEDLTIWKPSNVFDNEVGRVELFPVTITPSNLQHAIIAITFAERRADQATVIKSPILGFALITEVNEKRRKLRVLLPVPGRLPSKAMILTSYRYLE
modifications: [35S]-methionine-labelled
B3: CD-Clp1 (amino acids 101-341), in vitro translated (domain or fragment, UniProt Q08685 101-341)
chain: HTMKYIYNLHFMLEKIRMSNFEGPRVVIVGGSQTGKTSLSRTLCSYALKFNAYQPLYINLDPQQPIFTVPGCISATPISDILDAQLPTWGQSLTSGATLLHNKQPMVKNFGLERINENKDLYLECISQLGQVVGQRLHLDPQVRRSGCIVDTPSISQLDENLAELHHIIEKLNVNIMLVLCSETDPLWEKVKKTFGPELGNNNIFFIPKLDGVSAVDDVYKRSLQRTSIREYFYGSLDTAL
modifications: [35S]-methionine-labelled
B4: NTD-CD-Clp1 (amino acids 1-341), in vitro translated (domain or fragment, UniProt Q08685 1-341)
chain: MASLPGIDEHTTSEELITGDNEWHKLVIPKGSDWQIDLKAEGKLIVKVNSGIVEIFGTELAVDDEYTFQNWKFPIYAVEETELLWKCPDLTTNTITVKPNHTMKYIYNLHFMLEKIRMSNFEGPRVVIVGGSQTGKTSLSRTLCSYALKFNAYQPLYINLDPQQPIFTVPGCISATPISDILDAQLPTWGQSLTSGATLLHNKQPMVKNFGLERINENKDLYLECISQLGQVVGQRLHLDPQVRRSGCIVDTPSISQLDENLAELHHIIEKLNVNIMLVLCSETDPLWEKVKKTFGPELGNNNIFFIPKLDGVSAVDDVYKRSLQRTSIREYFYGSLDTAL
modifications: [35S]-methionine-labelled
B5: CTD-Clp1 (amino acids 342-446), in vitro translated (domain or fragment, UniProt Q08685 342-445)
chain: SPYAIGVDYEDLTIWKPSNVFDNEVGRVELFPVTITPSNLQHAIIAITFAERRADQATVIKSPILGFALITEVNEKRRKLRVLLPVPGRLPSKAMILTSYRYLE
modifications: [35S]-methionine-labelled
B6: NTD-Clp1 (amino acids 1-100), in vitro translated (domain or fragment, UniProt Q08685 1-100)
chain: MASLPGIDEHTTSEELITGDNEWHKLVIPKGSDWQIDLKAEGKLIVKVNSGIVEIFGTELAVDDEYTFQNWKFPIYAVEETELLWKCPDLTTNTITVKPN
modifications: [35S]-methionine-labelled

No constants are given. Whether binding was seen depends on the method and setting. In cells and extracts the contact can be indirect. Some binding calls cover weakened binding; strength is not graded here. For part of these data: Sequences can lack the tags named with a protein.

The target of one experiment is T1, GST-Ysh1 (yeast). In words: pull-down; GST-Ysh1 with in vitro translated [35S]-labelled proteins; all binding reactions contained labelled Pta1 and increasing concentrations of wild-type or mutant Clp1 (Fig. 2D); only the target purified.
Turning to B1, the binding entry is recorded as “binds”.

The next experiment has as its target T2, GST-Rna14 (yeast). In words: pull-down; GST-fusion protein (100 ng) incubated with in vitro translated [35S]-methionine-labelled protein for 1 h at room temperature; bound in 860 µl to glutathione sepharose equilibrated in PBS, 0.01% NP-40, 100 µg BSA; washed three times with IPP150 (20 mM Tris-HCl pH 8.0, 150 mM KCl, 0.01% NP-40); SDS-PAGE, autoradiography (Fig. 2B, 2C); only the target purified.
For the molecule B2, the binding entry is “binds”.
On the same count and under the same terms, the same measure for B3: “binds”.
For B4, the binding result is given as “binds”.
The same measure, in the same setting: as for B5, the entry is “binds”.
As for B6, the binding entry is on record as “no binding (tested: 100 ng GST-fusion protein in 860 µl)”.

A further experiment deals with GST-Pcf11 (yeast) (UniProt P39081). Described as above.
For the molecule B2, the binding result is “binds weakly”.
On the same count and under the same terms, as for B3, the entry is “binds weakly”.
The same measure, in the same setting: the same measure for B4: “binds weakly”.
In the case of B5, the binding entry was “no binding (tested: 100 ng GST-fusion protein in 860 µl)”.
B6: the binding result is on record as “no binding (tested: 100 ng GST-fusion protein in 860 µl)”.

The target in another experiment is T1, GST-Ysh1 (yeast). Described as above.
For the molecule B2, the binding entry is on record as “binds”.
Still for that read-out and setting: the same measure for B3: “binds”; for B4: “binds”; for B5: “binds”.
Consider B6, for which the binding entry is “no binding (tested: 100 ng GST-fusion protein in 860 µl)”.

The next experiment addresses T3, GST-Rna15 (yeast). Described as above.
Turning to B2, the binding result is reported as “no binding (tested: 100 ng GST-fusion protein in 860 µl)”.
As to B3, the binding result is reported as “no binding (tested: 100 ng GST-fusion protein in 860 µl)”.
Still for that read-out and setting: the same measure for B4: “no binding (tested: 100 ng GST-fusion protein in 860 µl)”.
For B5, the binding entry is on record as “binds”.
In the case of B6, the binding entry is on record as “no binding (tested: 100 ng GST-fusion protein in 860 µl)”.
